# Experimental data reported in PubChem BioAssay AID1508642 (National Center for Advancing Translational Sciences (NCATS), 2021).
# Among all 43,000 compounds or so, about 200 (0.47%) were called active. Inconclusive results (about 12%) are left out. The call rests on the fitted dose curve; in most records, active means well fitted cell-killing curve with a large enough effect; inconclusive means small, poorly fitted or top-dose-only effect, or effect the other way; inactive means flat fitted curve, though single readings scatter. The list shows a part of the results.
# Experiment: Cell viability qHTS assay in S16 Pmp22-F2sN cells; further: nearly all actives have a fitted effect of over 65% in size
# Conditions: S16 Pmp22-F2sN Schwann cells (luciferase reporters placed in the Pmp22 gene) viability, CellTiter-Glo, 24 h; series mostly up to 57.5 µM; activity change, negative = cytotoxicity: at the top concentration
# Outline: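 Rat S16 Schwann reporter line, 24 h treatment with library compounds delivered at 23 nL per well. Cell viability by CellTiter-Glo luminescence.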
# On the % scale 0 is the no-effect control and ±100 the full control effect.
row,SMILES,"activity change, negative = cytotoxicity"
1,Cc1cc(C)cc(N2CCn3c2nc2c3c(=O)n(CCc3ccccc3)c(=O)n2C)c1,inactive: 3.96%
2,Cc1cccc(-c2nc3nc(C)cc(N4CCN(c5ccccc5)CC4)n3n2)c1,inactive: 1.91%
3,COc1ccc(NC(=O)N2CCN(c3cc(-c4noc(C)n4)ccc3C)CC2)c(OC)c1,inactive: -4.22%
4,CC(C)(C)C1CCc2c(sc(NC(=O)c3ccncc3)c2C(=O)Nc2ccccc2Cl)C1 (stereo not given),inactive: -2.51%
5,COc1cccc(N2CCN(Cc3nnc(-c4ccc5c(c4)OCO5)o3)CC2)c1,inactive: 1.09%
6,COc1ccc(NS(=O)(=O)c2ccc(NS(=O)(=O)c3ccc4c(c3)OCCO4)cc2)cc1,inactive: 10.9%
7,CCOC(=O)c1c(C)oc2nc(C)nc(NC(C)c3ccccc3)c12 (stereo not given),inactive: -4.89%
8,CC1=C(C(=O)OCc2ccc(C)cc2)C(c2ccccc2Cl)CC(=O)N1 (stereo not given),inactive: 18.7%
9,Cc1cccc(OCC(=O)Nc2ccc3c(c2)nc(CCNC(=O)c2ccco2)n3C)c1,inactive: 7.25%
10,Cc1nc2c3ccccc3nc(NNC(=O)CCC(=O)N3CCN(c4ccccc4)CC3)n2n1,inactive: -2.15%
11,COc1ccc(CCNC(=O)CCc2c(C)nc3c(c(C)nn3-c3ccccc3)c2C)c(OC)c1,inactive: 3.93%
12,Cc1ccc(OCc2ccc(-c3nc(C#N)c(N4CCC(C)CC4)o3)o2)cc1,inactive: 1.51%
13,COc1ccc(-c2noc(N3CCN(c4cccc(C)c4C)CC3)n2)cc1OC,inactive: -17%
14,CCc1cccc(C)c1NC(=O)C(C)Sc1nc2c(c(=O)[nH]1)CCCC2 (stereo not given),inactive: 1.72%
15,COc1ccccc1C(=O)Nc1nnc(SCc2cc(=O)n3ccc(C)cc3n2)s1,inactive: 11.6%
16,Cc1cc(C)cc(NC(=O)c2sc3nc(-c4cc5ccccc5oc4=O)[nH]c(=O)c3c2C)c1,inactive: 2.27%
17,COC(=O)c1c(C)sc(-c2c(-c3cccc(Cl)c3)[nH]c3c2c(=O)[nH]c(=O)n3C)c1O,inactive: -1.69%
18,COc1ccc(C(=O)CN2C(=O)N(c3cc(C)ccc3C)S(=O)(=O)c3ccccc32)cc1,inactive: -7.51%
19,CCc1ccccc1NC(=O)C1CCN(C2=NS(=O)(=O)C(c3ccc(C)c(C)c3)=C2C)CC1,inactive: -1.9%
20,CCOc1ccc(N(CC(=O)NCc2ccc(Cl)cc2)S(=O)(=O)c2c(C)noc2C)cc1,inactive: 1.44%
21,Cc1ccc(C(=O)Nc2ccc(OCc3cc(=O)n4c5c(sc4n3)CCCC5)cc2)cc1,inactive: -3.88%
22,Cc1c(NC(=O)c2ccc(N3CCC(C)CC3)c([N+](=O)[O-])c2)cccc1-c1nc2ccccc2o1,inactive: -0.307%
23,Cc1cccc(N2CCN(C(=O)c3oc(=O)c4ccccc4c3-c3ccccc3)CC2)c1C,inactive: 11.6%
24,COCCCNC(=O)C1CCC(Cn2c(=O)c3sccc3n(Cc3ccc(F)cc3)c2=O)CC1 (stereo not given),inactive: -8.74%

row,SMILES,"activity change, negative = cytotoxicity"
1,Cc1cc(NC(=O)Nc2csc3c2CCCC3)ccc1Br,inactive: -2.66%
2,CCOc1ccc(N(CC)C(=O)CSc2n[nH]c(-c3ccccc3)n2)cc1,inactive: 3.53%
3,Cc1ncc(CO)c2c1Oc1nc(-c3ccccc3)nc(SCC(=O)Nc3cccc(C(F)(F)F)c3)c1C2,inactive: 4.89%
4,CCn1cc(C(=O)NCc2ccccc2Cl)c(=O)c2cc(S(=O)(=O)N3CCCCC3)ccc21,inactive: -0.654%
5,Cc1ccccc1NC(=O)CN1C(=O)CCn2nc(-c3cccn3C)cc21,inactive: -1.55%
6,Cc1sc2c(c1C)c(=O)n(-c1cccc(C(F)(F)F)c1)c(=O)n2Cc1ccccc1C#N,inactive: 29.9%
7,Cc1ccc(OCCCCn2c(CCNC(=O)C(C)(C)C)nc3ccccc32)cc1,inactive: -9.67%
8,O=C(Cc1ccccc1)Nc1cccc(-c2nc3cccnc3s2)c1,inactive: 9.63%
9,CC1=C(C(=O)Nc2cccnc2)C(c2ccccc2)n2nc(SCc3ccccc3F)nc2N1 (stereo not given),inactive: -1.31%
10,COc1ccc(-c2coc3c2c(C)cc2oc(=O)cc(C)c23)cc1,inactive: -2.81%
11,O=C(NC1CCCC1)c1ccc2c(c1)N(Cc1ccccc1F)C(=O)c1ccccc1S2,inactive: -9.82%
12,O=C(CSc1n[nH]c(-c2ccccc2Cl)n1)N1CCN(c2ccccc2F)CC1,inactive: -0.0053%
13,CCOC(=O)C1CCN(C(=O)Cn2ncc3c([nH]c4ccc(C)cc43)c2=O)CC1,inactive: 19.3%
14,CC(=O)N1CCC2(CC1)OC(=O)C(C)=C2C(=O)Nc1ccccc1C(F)(F)F,inactive: 11.2%
15,Cc1cccc(N(CC(=O)NCCSc2ccc(Cl)cc2)S(=O)(=O)c2ccccc2)c1C,inactive: -21.4%
16,Cc1cccc(C(=O)Nc2nc(-c3ccc(Br)cc3)ns2)c1,inactive: 6.85%
17,COc1cc(C(=O)N2CCc3c([nH]c4ccccc34)C2c2ccccc2)cc(OC)c1OC (stereo not given),inactive: -28.6%
18,Cc1ccc(C)c(N2CCN(C(=O)c3cc(S(=O)(=O)N4CCCC4)cn3C)CC2)c1,inactive: 2.97%
19,COc1ccccc1CCNC(=O)Cn1ccc2cc(S(=O)(=O)N3CCCCCC3)ccc21,inactive: -26.9%
20,CCc1nnc(SCc2nc(-c3ccc(OC)cc3)oc2C)c2cc3sccc3n12,inactive: 2.06%
21,CCOC(=O)C1CCC(CN(Cc2c(Cl)cccc2Cl)S(=O)(=O)c2ccc(F)cc2)CC1 (stereo not given),inactive: -8.68%
22,CSc1ncc(C(=O)N2CCN(c3ccc(F)cc3)CC2)c(C)n1,inactive: 11.6%
23,COc1ccc(N2CCN(C(=O)c3ccc4c(c3)CCN4S(C)(=O)=O)CC2)cc1,inactive: -2.69%
24,CCSc1nc2c(c(=O)[nH]c(=O)n2C)n1CC(O)COc1ccc(Cl)cc1 (stereo not given),inactive: -13.8%

row,SMILES,"activity change, negative = cytotoxicity"
1,Cc1ccc(C)c(S(=O)(=O)c2nnn3c2nc(Nc2ccc(F)c(Cl)c2)c2sccc23)c1,inactive: 0.301%
2,Cc1nc(SCC(=O)Nc2ccc(Br)cc2)[nH]c(=O)c1Cc1ccccc1,inactive: -0.588%
3,CCc1ccc(OCC(=O)NCc2nc(-c3cccc(C)c3)no2)c(Br)c1,inactive: 18%
4,Cc1ccc2c(c1)N(C(=O)N1CCC(C(=O)NCc3ccco3)CC1)CC(C)O2 (stereo not given),inactive: 3.63%
5,Cc1ccc2nc(NC(=O)c3cc(=O)c4cc(Cl)ccc4o3)sc2c1,inactive: 12.1%
6,CCc1ccccc1NC(=O)CSc1nnc(CC)c(CC)n1,inactive: -8.8%
7,O=C(NCCc1ccc(Cl)cc1)c1ccc(CS(=O)(=O)Cc2ccccc2F)o1,inactive: -29.2%
8,CC(=O)N1CCc2c(sc3c2c(=O)n(-c2ccc(C)cc2)c(=O)n3CC(=O)Nc2ccccc2)C1,inactive: -4.02%
9,CCOc1ccc(-c2c(C)nn3c(C)c(C(=O)NCc4ccc(C)o4)cnc23)cc1OCC,inactive: 9.12%
10,CC(C)c1ccc(Nc2c(-c3ccccc3O)nc3cnccn23)cc1,inactive: -9.11%
11,COC(=O)c1c(NC(=O)c2ccccc2C(=O)O)sc2c1CCCC2,inactive: -4.51%
12,Cc1ccc(-c2cc(C(=O)NCc3ccccc3)c3c(-c4ccc(C)cc4)[nH]nc3n2)cc1,inactive: -1.48%
13,COc1ccc(Cn2ccc3nc(C)c(C(=O)Nc4ccc(C)c(F)c4)cc3c2=O)cc1,inactive: 5.53%
14,COc1ccccc1NC(=O)c1c(NC(=O)c2ccccc2F)sc2c1CCC2,inactive: -1.66%
15,COc1ccc(NC(=O)c2nnn(Cc3ccc(Br)cc3F)c2N)c(OC)c1,inactive: 4.91%
16,O=C(C1CCN(S(=O)(=O)c2cccc3nonc23)CC1)N1CCN(c2ccccc2)CC1,inactive: 19.2%
17,CCOc1ccc(CNC(=O)c2ccc(CS(=O)c3ccccc3)o2)cc1 (stereo not given),inactive: 3.41%
18,COc1ccc(N2CCN(C(=O)c3nc(-c4ccc(Cl)cc4)n4c3CCCCC4)CC2)cc1,inactive: -2.61%
19,Cc1ccc(-n2c(SCC(=O)Nc3cccc(Cl)c3)nc3n[nH]c(C)c3c2=N)cc1,inactive: -14%
20,Cc1ccc(N2CC(NC(=O)c3ccc4c(c3)OCO4)CC2=O)cc1 (stereo not given),inactive: 7.5%
21,CC(=O)N1CCCc2ccc(NS(=O)(=O)c3ccc(F)cc3F)cc21,inactive: -1.4%
22,Cc1ccccc1NC(=O)Cn1nc(-c2ccc(F)cc2)c2cnc3ccccc3c21,inactive: 6.98%
23,CS(=O)(=O)N1CCc2cc(C(=O)N3CCN(c4ccc(F)cc4)CC3)ccc21,inactive: -9.22%
24,CCc1ccc(NC(=O)c2ccc3c(c2)nnn3CC)cc1,inactive: -9.43%

row,SMILES,"activity change, negative = cytotoxicity"
1,Cc1c(Cl)cccc1-n1ncc(C(=O)Nc2ccc3c(c2)OCCO3)c1C1CCN(C(=O)OC(C)(C)C)CC1,inactive: -2.17%
2,Cc1ccccc1OCC(=O)OCc1cc(=O)n2ccsc2n1,inactive: 2.16%
3,Cc1ccc2cc3cc(C(=O)Nc4ccc(F)cc4Cl)oc3nc2c1,inactive: -6.75%
4,Cc1ccc(-n2nc3c(N4CCC(C(=O)NC(C)C)CC4)nnc(C)c3c2C)cc1,inactive: -23.1%
5,Cc1cc(C)cc(NC(=O)c2cc(S(=O)(=O)N3CCCCCC3)cn2C)c1,inactive: 3.73%
6,Cn1c(SCc2ccc(F)cc2)nc2ccc(C(=O)NCc3ccc(F)cc3)cc21,inactive: 27%
7,Cc1nn(CC(=O)NC2CC2)c(=O)c2cc3ccccc3n12,inactive: 6.14%
8,CCC1CN(C(=O)N2CCC(C(=O)NCc3ccc(OC)cc3OC)CC2)c2cc(C)ccc2O1 (stereo not given),inactive: -5.71%
9,Cc1ccc(NC(=O)Cn2c(-c3ccc4c(c3)OCO4)cn(-c3ccccc3)c2=O)cc1C,inactive: -24%
10,COC(=O)c1ccc(Nc2ncnc3c2nc2n3CCCC2)cc1,inactive: -26.9%
11,CCOc1ccc(C(=O)NCCn2cc(SCC(=O)NCCc3ccc(OC)c(OC)c3)c3ccccc32)cc1,inactive: 16.8%
12,CCOc1ccccc1NC(=O)C1CCN(S(=O)(=O)c2c(C)noc2/C=C/c2ccc(C)cc2)CC1,inactive: -2.76%
13,CCOC(=O)N1CCN(C(=O)CN(c2cccc(Cl)c2C)S(=O)(=O)c2ccc(C)cc2)CC1,inactive: -17.8%
14,O=C(Nc1ccccc1)c1cccc2c(=O)c3c([nH]c12)CCCC3,inactive: 1.75%
15,COc1ccccc1-c1nc(-c2ccc(Br)o2)no1,inactive: -22.3%
16,Cc1cccc(-n2c(SCC(N)=O)nc3c(oc4ccccc43)c2=O)c1,inactive: 19.6%
17,COc1ccccc1OCCn1cc(C(=O)c2cccs2)c2ccccc21,inactive: -9.83%
18,COc1ccc(Cl)cc1NC(=O)Cn1ccn(Cc2ccc(C)cc2)c(=O)c1=O,inactive: -18.2%
19,O=C(c1cc2c(=O)oc3ccccc3c2s1)N1CCN(c2cccc(Cl)c2)CC1,inactive: 5.22%
20,Cc1ccc(C)c(NC(=O)Cn2cc(C(=O)c3ccncc3)c(=O)c3cc(F)ccc32)c1,inactive: 1.29%
21,CCOc1ccc(CNC(=O)c2cc3oc4ccccc4c3n2C)cc1,inactive: -2%
22,COc1ccc(NC(=O)Cn2cnc3sc(C)c(S(=O)(=O)N4CCN(C)CC4)c3c2=O)cc1OC,inactive: 0.173%
23,O=C(CSc1nc2c(c(=O)[nH]1)CCC2)Nc1ccccc1F,inactive: 0.365%
